This is an account of results in PMC6919601, “Identification of Plasmodium dipeptidyl aminopeptidase allosteric inhibitors by high throughput screening” (PLoS ONE, 2019).

Among all 110,000 compounds or so, about 230 (0.21%) showed an effect of 50% or more. Some of the results follow.
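Further: 30 min substrate incubation versus DMSO and 10 µM JCP410 controls.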

DPAP1, sequence (Q8IIJ9 whole entry, looked up): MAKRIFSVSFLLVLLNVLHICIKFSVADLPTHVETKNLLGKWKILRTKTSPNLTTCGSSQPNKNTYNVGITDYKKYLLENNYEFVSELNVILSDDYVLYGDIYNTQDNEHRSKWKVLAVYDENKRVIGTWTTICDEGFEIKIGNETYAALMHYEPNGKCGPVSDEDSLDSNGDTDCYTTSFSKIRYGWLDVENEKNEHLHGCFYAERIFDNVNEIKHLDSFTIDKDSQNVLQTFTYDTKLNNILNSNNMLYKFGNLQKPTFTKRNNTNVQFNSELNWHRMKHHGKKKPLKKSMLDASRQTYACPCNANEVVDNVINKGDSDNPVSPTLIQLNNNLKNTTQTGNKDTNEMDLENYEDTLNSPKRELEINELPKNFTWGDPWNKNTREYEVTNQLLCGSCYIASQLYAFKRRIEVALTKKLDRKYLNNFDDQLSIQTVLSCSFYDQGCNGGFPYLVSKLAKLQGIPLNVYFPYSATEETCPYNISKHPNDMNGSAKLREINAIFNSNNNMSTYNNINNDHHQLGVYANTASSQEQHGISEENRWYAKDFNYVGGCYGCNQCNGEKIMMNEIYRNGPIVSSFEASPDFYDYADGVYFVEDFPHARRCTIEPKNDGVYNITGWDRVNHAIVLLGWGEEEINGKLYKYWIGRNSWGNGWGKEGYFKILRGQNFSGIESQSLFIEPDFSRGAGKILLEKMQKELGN

This assay addresses DPAP1 (Plasmodium falciparum, UniProt Q8IIJ9). The experiment in a line: primary screen, percent inhibition; read by cleavage of a fluorogenic dipeptide substrate; higher = more effect of the substance. Also on record: species or system P. falciparum D10 trophozoite lysates; single well.
For `O=C(CCCn1nc(-c2ccccc2)c2cc(Cl)ccc21)NCCCN1CCOCC1`, the “% Inhibition @ 10 uM” value is on record as -8.58%.
Take `COc1ccc(OC)c(CCC(=O)O)c1`: the “% Inhibition @ 10 uM” value is recorded as -6.2%.
In the case of `COc1cc(N2CCCC2)c(OC)cc1/C=C1\NC(=O)N(CC(=O)Nc2ccc(C)cc2)C1=O`, the “% Inhibition @ 10 uM” value is recorded as -2.22%.
For `CCOc1cc(CNCc2c(C(=O)O)n(CC)c3cc(OC)ccc23)cc(OCC)c1OCC` the value was 3.38%.
Next, `Cc1cc(-c2ccc(C)c(S(=O)(=O)NCCC(C)C)c2)on1`: 1.32%; `COc1ccc(/C=C2/NC(=O)NC2=O)c(OC)c1C`: 5.37%; `Cc1nc(CNS(=O)(=O)c2ccc3c(c2)CCCC3)cs1`: -2.45%.
For `Cc1cccc(Cn2c(Br)nc3c2c(=O)[nH]c(=O)n3C)c1` the value was 2.75%; for `COc1cc(C2C(C(=O)c3cc4ccccc4o3)=C(O)C(=O)N2Cc2ccco2)ccc1O` (centres unmarked), -1.96%; for `O=C(c1ccccc1NCc1ccccc1O)N1CCOCC1`, 0.661%.
Consider `Cc1c(CN2CCCCC2CO)c(=O)n(-c2ccccc2)n1C` (centres unmarked), for which the “% Inhibition @ 10 uM” value is given as 2.1%.
For `O=C(c1ccco1)N1CCN(C(=O)c2nc(-c3cccnc3)no2)CC1` the value was -2.58%; for `Cc1cccc(-n2nc3c(c2NC(=O)c2ccc(C(=O)c4ccccc4)cc2)CS(=O)(=O)C3)c1C`, 9.22%; for `O=C1CCCC2=C1C(c1ccc(Br)cc1)Nc1ccc3ncccc3c12` (centres unmarked), 4.12%.
In the case of `Cc1nc2sc3c(c2c2nnc(SCC(=O)c4ccccc4)n12)CCCC3`, the “% Inhibition @ 10 uM” value is listed as -2.65%.
Next, `N#CC1=C(N)N2C(=N)CSC2=C(C(N)=O)C1c1ccccc1` (centres unmarked): 4.7%.
For `COc1ccccc1-c1nc(-c2ccncc2)no1` the value was 1.4%; for `COc1ccc(CCNCc2c(C(=O)O)c(C)n(Cc3ccc(C)cc3)c2C)c(OC)c1`, -1.92%.
Next, `Cc1ccc(S(=O)(=O)C(c2ccccc2)c2c(C)noc2C)cc1` (centres unmarked): -3.45%; `O=C(O)CNC(=O)/C(=C/c1ccccc1)NC(=O)c1ccco1`: -2.54%.
As to `COc1ccc(S(=O)(=O)N(CC(=O)NC(C)C)c2cccc(Cl)c2)cc1`, the “% Inhibition @ 10 uM” value is recorded as 7.42%.
For `CCOCCCNC(=O)c1ccc2c(c1)nc(C)n2-c1ccc(F)c(F)c1` the value was 4.35%.
Next, `OC(COC1CCCCC1)Cn1c2ccccc2c2ccccc21` (centres unmarked): -0.693%.
For `COc1ccccc1C(=O)Nc1ccc(C)cc1Br` the value was 0.214%.
Turning to `CN(C)CCC/N=C/C1=C(O)CC(C)(C)CC1=O`, the “% Inhibition @ 10 uM” value was determined as 1.25%.
Take `Cc1cc(NS(=O)(=O)c2ccc(NC(=O)COc3ccc(Br)c(C)c3)cc2)no1`: the “% Inhibition @ 10 uM” value is given as -1.51%.
As to `C=CCn1c(SC)nc2c(c1=O)C1(CCCCC1)Cc1ccccc1-2`, the “% Inhibition @ 10 uM” value was found to be 2.92%.
Next, `Cc1cccc(N(CC(=O)N2CCC(C)CC2)S(C)(=O)=O)c1C`: -3.03%; `CN(C(=O)Nc1cccc(C(=O)NC(CSCc2ccccc2)C(=O)NCC#N)c1)[C@@H]1CCN(Cc2ccccc2)C1` (some centres unmarked): -6.98%.
On to `Cc1ccc(-c2nnc(NC(=O)Nc3ccc(Cl)cc3)s2)cc1`, for which the “% Inhibition @ 10 uM” value amounted to 3.48%.
Next, `O=C(C(NS(=O)(=O)c1ccc(Br)s1)c1ccccc1)N1CCOCC1` (centres unmarked): -1.92%.
Next, `CCCn1c2ccccc2c2cnn(CC(=O)NCCCN(Cc3ccco3)C3CCCC3)c(=O)c21`: 2.36%; `Cc1sc2nc(SCC(=O)N3CCOCC3)nc(O)c2c1C`: 2.18%.
Next, `O=C(c1cc2cc3ccc(Cl)cc3nc2o1)N1CCCCCC1`: -1.54%.
Regarding `COc1ccc(OC)c(NC(=O)Cc2ccc(F)cc2)c1`, the “% Inhibition @ 10 uM” value was 0.843%.
Next, `CCOc1ccc(-n2nnc(-c3nc(-c4ccccc4C)no3)c2N)cc1`: 1.66%.
For the compound `COc1ccc(CN2CCC(Cc3ccccc3)CC2)c(OC)c1`, the “% Inhibition @ 10 uM” value is 0.708%.
For `Cc1cc2ccccc2n1CCNC(=O)C(c1ccccc1)c1ccccc1` the value was -4.89%; for `COCCN1C=C(C(=O)OC)C(c2ccccc2OC)C(C(=O)OC)=C1`, 2.09%.
Next, `Cc1cc(Cl)ccc1NC(=O)CN(Cc1ccccc1)S(C)(=O)=O`: -3.78%; `O=C(O)c1ccc(NC(=O)c2nccnc2C(=O)O)cc1`: -2.18%.
For `O=C(NCCc1ccc(Cl)cc1)C1CCN(S(=O)(=O)c2cccc3nsnc23)CC1` the value was -3.35%.
For the compound `CC1(C)CC(=O)C(/C=N/CCc2ccc(O)cc2)=C(O)C1`, the “% Inhibition @ 10 uM” value is -7.08%.
For `CNC(=O)/C(=C\c1cccc(Oc2ccccc2)c1)NC(=O)c1ccc(C)cc1` the value was -8.12%; for `O=S(=O)(c1ccccc1)N1CCN(c2ncnc3scc(-c4ccccc4)c23)CC1`, -2.19%.
For `COC(=O)c1sc2ccccc2c1C(=O)OC` the value was 3.04%; for `O=C1OC(c2ccccc2)=N/C1=C\N1CCCCC1`, 1.25%; for `Cc1ccc(C)c(OCC(=O)NC(CC(=O)O)c2ccc(C(C)(C)C)cc2)c1` (centres unmarked), 7.4%.
Next, `O=C(CSCc1cccc(Br)c1)NCc1ccccc1`: -0.0217%.
On to `COc1cccc(C2NC(C(=O)O)Cc3c2[nH]c2ccccc32)c1OC` (centres unmarked), for which the “% Inhibition @ 10 uM” value was -5.5%.
For `Cc1ccc(CCNc2nn3nnnc3c3ccccc23)cc1` the value was -0.975%; for `CN1CCN(Cc2ccc(N(C)C)cc2)CC1`, -3.35%; for `CCOC(=O)c1cnc2sccn2c1=O`, 0.708%.
Next, `Cc1cc(C)c(C)c(S(=O)(=O)N2CCC(C(N)=O)(N3CCCCC3)CC2)c1C`: 0.00706%.
For `CC(=O)c1ccc(NC(=O)CCC(=O)O)cc1` the value was -6.52%; for `O=C(O)c1ccccc1C(=O)N1CCN(c2ccc(Cl)c(Cl)c2)CC1`, -3.92%.
Consider `Cc1cccc(/N=c2\scc(-c3ccc(Cl)cc3)n2CCO)c1`, for which the “% Inhibition @ 10 uM” value was -2.36%.
Next, `Cc1ccc(CS(=O)(=O)Cc2ccc(C(=O)NCCc3ccccc3)o2)cc1`: -2.99%; `Cc1ccccc1-c1noc(CCC(=O)NC2CCCCC2)n1`: -3.12%.
Turning to `CN1C(=O)S/C(=C\c2ccccc2F)C1=O`, the “% Inhibition @ 10 uM” value is reported as -4.93%.
`O=C(O)c1ccc2nc(-c3ccc(O)cc3)sc2c1`: the “% Inhibition @ 10 uM” value is reported as 6.49%.
Next, `CC1CCC(C(=O)NC(Cc2c[nH]c3ccccc23)C(=O)NCCCOC(C)C)CC1` (centres unmarked): -2.49%; `O=C(C1CCN(c2nnc(-n3cccc3)s2)CC1)N1CCN(Cc2ccc3c(c2)OCO3)CC1`: 5.84%; `COc1ccc(NC(=O)c2cnn3c(C(F)(F)F)cc(-c4cccs4)nc23)c(OC)c1`: 1.67%.
For `COc1ccc(-c2ccc(=O)n(CC(=O)NCc3ccco3)n2)cc1`, the “% Inhibition @ 10 uM” value amounted to 3.93%.
For `CCCCOc1ccc(N2CC(C(=O)Nc3ccccc3Cl)CC2=O)cc1` (centres unmarked) the value was 3.29%.
For `COc1ccccc1CN1C(=O)c2nccnc2C1=O` the value was 0.66%; for `COCCNc1oc(Cc2cccc3ccccc23)nc1C#N`, 0.343%; for `CCC(C)Nc1ncnc2c1cnn2Cc1ccc(Cl)cc1` (centres unmarked), 3.21%.
Next, `COc1ccc(NC(=O)/C=C\C(=O)O)c([N+](=O)[O-])c1`: 4.42%.
Consider `CN(C)CC/N=c1\c(N)c(O)oc2ccccc12`, for which the “% Inhibition @ 10 uM” value amounted to 0.986%.
For `COc1ccccc1C(=O)N/C(=C/c1ccc(Br)cc1)C(=O)N1CCCC1` the value was 2.44%.
For the compound `O=C(NCCN1CCOCC1)c1cnn(-c2ccccc2)c1-n1cccc1`, the “% Inhibition @ 10 uM” value is 0.137%.
Next, `O=C(O)c1ccc(NC(=O)c2c(C(=O)O)cccc2[N+](=O)[O-])cc1`: -3.16%; `CCOC(=O)c1cnn(-c2nc(C)cc(C)n2)c1N`: -0.769%.
On to `COc1ccccc1-c1cc(C(=O)Nc2cnn(Cc3ccccc3C)c2)no1`, for which the “% Inhibition @ 10 uM” value is given as -0.601%.
For `O=C(O)c1cc(N2C(=O)C3C4C=CC(C4)C3C2=O)ccc1Cl` (centres unmarked) the value was -6.7%; for `CC(C)(C)OC(=O)NCC1CCN(S(=O)(=O)Cc2ccccc2)CC1`, 0.635%; for `CC1=C(C(=O)Nc2cccc(C)c2C)C(c2ccc(C)cc2)NC(=O)N1` (centres unmarked), -3.39%.
Next, `C=CCC1(N(C(C)=O)c2ccccc2)CCCCC1`: -1.05%; `CCOC(=O)c1c(C)[nH]c(C)c1S(=O)(=O)NCc1ccc(C)cc1`: 0.358%; `CCc1sc2ncnc(N(C)C)c2c1-c1ccccc1`: 2.18%.
As for `Cc1ccccc1OCC(=O)Nc1sc(Cc2ccccc2)c(C)c1C(N)=O`, the “% Inhibition @ 10 uM” value was 2.03%.
For `CCCCCNc1nc(N)nc(-c2cc(Cl)ccc2OC)n1` the value was 0.317%; for `O=C(CN1CCCC1)Nc1c(C(=O)C2CC2)oc2ccccc12`, -2.07%.
Next, `CCOC(=O)N1CCN(Cc2nc3c(c(=O)[nH]c(=O)n3C)n2Cc2ccccc2)CC1`: -1.21%.
For `O=C(Nc1ccn(Cc2ccc(Cl)cc2)n1)c1ccc2c(c1)OCO2` the value was -1.88%; for `CCN(CC)c1ccc(NC(=O)c2cccc(C)c2)cc1`, 1.28%; for `CC1CCN(CC(C)OC(=O)c2ccco2)CC1` (centres unmarked), -0.0735%.
With `O=S(=O)(Nc1cccc(C(F)(F)F)c1)c1ccc(F)cc1`, the “% Inhibition @ 10 uM” value is given as 1.9%.
Next, `CCOc1ccc(CNCc2c(C(=O)O)[nH]c3cc(C)ccc23)cc1`: 1.53%; `COc1cc(C(=O)Nc2ccc(Oc3ccccc3)cc2)cc(OC)c1OC`: 2.43%.
Regarding `CN(Cc1ccccc1)C(=O)Cc1ccccc1`, the “% Inhibition @ 10 uM” value came out at 1.83%.
For `CCCCO/C(O)=C1/C(C)=Nc2ncnn2C1c1ccccc1C` (centres unmarked) the value was 4.23%; for `COc1ccc(-c2cc(-c3ccc(OC)cc3O)[nH]n2)cc1`, -2.32%; for `Cc1csc(NC(=O)CSc2nc3c(c(C(F)(F)F)c2C#N)CCC3)n1`, 11.2%.
Next, `Cc1nc2cc(NC(=O)c3ccco3)ccc2n1C`: -0.643%; `Cc1ccc(Cn2c(C(=O)O)c(CNCc3ccccc3C)c3ccc(C)cc32)cc1`: 8.11%.
For `CC1CCC(NC(=O)c2cccc3c2-c2ccccc2C3=O)CC1` (centres unmarked) the value was 2.99%.
Take `Cc1ccn2c(NC(=O)COc3ccccc3)c(-c3ccc(F)cc3)nc2c1`: the “% Inhibition @ 10 uM” value is reported as 2.83%.
For `COc1cccc(OC)c1C(=O)N1CC(C)OC(C)C1` (centres unmarked) the value was 1.83%.
